Results: PubChem BioAssay AID485313 (National Center for Advancing Translational Sciences (NCATS), 2010)
About 7,600 (2.4%) of roughly 320,000 compounds were called active. Inconclusive means that the source gave no clear call. Such entries were picked first, then a sample of the others. Calls follow the shape of the dose curve; as a rule, active = well fitted activation curve with a large enough effect; inconclusive = small, poorly fitted or top-dose-only effect; inactive = no such curve, though single readings can be large or run the other way. Potencies of inconclusive entries are left out as doubtful fits.

Assay: qHTS Assay for NPC1 Promoter Activators; also: nearly all actives have a fitted effect of over 60% in size;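 as to activation: reporter is driven by a mutant NPC1 promoter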
Conditions: Huh7 NPC1 promoter luciferase reporter, 24 h; series mostly up to 9.22 µM
Outline: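 In 1536-well qHTS, Huh7 cells harboring an NPC1 promoter–luciferase construct received compound for 24 h; activation was quantified by luminescence following luciferase reagent addition.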
Potency is read from the fitted curve at half-maximal effect; tags tell the direction and shape of the fitted curve.

| Compound | Potency |
| --- | --- |
| CN(C)C(=O)Oc1c(Cl)cc(Cl)c2ccccc12 | inactive |
| O=C1C2C3CCC(C3)C2C(=O)N1c1ccc(OS(=O)(=O)c2ccccc2)cc1 (centres undefined) | active: 3.55 µM |
| CN1C(=O)/C(=C\c2ccc(N3CCCCC3)o2)C(=O)NC1=S | active: 2.51 µM |
| O=C(NNc1c(F)c(F)cc(F)c1F)c1cc2ccccc2oc1=O | inconclusive [activator, single point] |
| Cc1cc(C(=O)CN2C(=O)c3ccccc3C2=O)c(C)n1C1CC1 | inconclusive [activator, partial curve] |
| COC(=O)C(O)(c1ccc(NC(=O)c2ccccc2)cc1)C(F)(F)F (centres undefined) | inconclusive [activator, partial curve] |
| Nc1ccccc1C(=O)OCCc1ccccc1 | active: 1.12 µM |
| c1ccc(OCCSc2nc3ccccc3[nH]2)cc1 | inconclusive [activator, single point] |
| c1ccc(CN2CCc3nc4ccccc4cc3C2)cc1 | inconclusive [activator, partial curve] |
| CCOC(=O)C1CCCN(C(=O)c2ccc3oc(Cc4ccccc4)nc3c2)C1 (centres undefined) | active: 3.55 µM |
| O=C(OCC(=O)c1cccs1)C1=COCCO1 | inconclusive [activator, single point] |
| O=C(Cc1ccc([N+](=O)[O-])cc1)N1CCN(Cc2ccc3c(c2)OCO3)CC1 | inactive |
| O=C1NC(=O)N(c2cccc(Cl)c2)C(=O)/C1=C\c1ccc(Sc2nc3ccccc3[nH]2)o1 | inactive |
| CCN1C(=O)C(=Cc2ccc(C)s2)C(=O)N(CC)C1=S | inconclusive [activator, partial curve] |
| N#Cc1cc2c(nc1SCC(=O)Nc1ccc(Cl)cc1)C1CCN2CC1 | inconclusive [activator, partial curve] |
| O=c1c2cc(N3CCOCC3)ccc2[nH]c(=S)n1Cc1ccc(Cl)cc1 | inconclusive [activator, single point] |
| O=C(c1cc2ccccn2n1)N1CCN(Cc2ccccc2)CC1 | inconclusive [activator, partial curve] |
| CC(C)(C)n1cc(C(=O)c2ccc3ccccc3c2O)cn1 | active: 0.447 µM |
| Cc1cc(C(=O)N=Nc2c(O)n(C)c3ccccc23)c(C)o1 | active: 2.51 µM |
| Cc1cc(NC(=O)c2noc3c2CCCCC3)no1 | inconclusive [activator, partial curve] |
| COC(=O)c1ccc(-c2nc(-c3ccc(Br)o3)no2)cc1 | active: 3.16 µM |
| CN(C)C(=O)Oc1ccc2c(c1)O/C(=C\c1cccc(Cl)c1)C2=O | inconclusive [activator, partial curve] |
| CN1CCN(C(=O)COc2ccc(-c3nc4ccccc4s3)cc2)CC1 | active: 0.631 µM |
| O=C1NC(=O)C(=Cc2cccc(OCCOc3ccccc3)c2)C(=O)N1 | active: 0.562 µM |
| CC1CCN(CC(=O)c2ccc3c(c2)OCCO3)CC1 | inconclusive [activator, full curve] |

| Compound | Potency |
| --- | --- |
| Cc1ccnc(SCc2nc3ccccc3s2)n1 | inconclusive [activator, partial curve] |
| COc1ccc(CCN2CCCC(CN(C)C(=O)c3cc(C)oc3C)C2)cc1 (centres undefined) | active: 2.51 µM |
| CCOC(=O)c1cc2c(cn1)[nH]c1ccccc12 | inconclusive [activator, partial curve] |
| CCC(=NCc1cccnc1)c1c(O)n(-c2ccccc2)c(=O)[nH]c1=O | inconclusive [activator, partial curve] |
| CCN(CCO)c1ccc(N=Cc2c(O)n(C)c(=S)[nH]c2=O)cc1 | inconclusive [activator, partial curve] |
| COc1cccc(CCNCc2ccc(SC)cc2)c1 | inconclusive [activator, single point] |
| O=C(c1ccccc1)c1cn(CC(=O)N2CCOCC2)c2ccccc12 | inactive |
| Cc1cc(C(=O)CS(=O)(=O)c2ccccc2)cc(C)c1OC(=O)N(C)C | active: 3.16 µM |
| Cc1ccc(OCCOc2cccc(C=C3C(=O)NC(=O)NC3=O)c2)c(C)c1 | active: 0.0891 µM |
| NC1=C(Br)C(=O)c2ccccc2C1=O | inactive |
| COc1ccc(OC)c(N2C(=O)/C(=C/c3ccco3)C(=O)NC2=S)c1 | inactive |
| Cc1cc(C(=O)OCC(=O)Nc2ccccc2F)c(C)n1C1CC1 | inconclusive [activator, partial curve] |
| O=c1[nH]c(=S)n(-c2ccc(F)cc2)c(O)c1/C=N/N1CCOCC1 | inactive |
| O=C(Nc1ccc(Cl)c(Cl)c1)c1ccco1 | inconclusive [activator, partial curve] |
| CN(C)C(=O)Oc1ccc(-c2cn3cc(Cl)ccc3n2)cc1 | active: 0.708 µM |
| Cc1cc(OCC(=O)Nc2cc(C)nn2-c2ccccn2)c2c3c(c(=O)oc2c1)CCC3 | inconclusive [activator, single point] |
| CNCC[C@H](Oc1ccc(C(F)(F)F)cc1)c1ccccc1 | inactive |
| CCN1CCN(/C=N/c2nc(C)cs2)CC1 | inconclusive [activator, partial curve] |
| CNC(=O)COC(=O)c1ccc(-c2nc3ccccc3s2)s1 | inconclusive [activator, partial curve] |
| C=CCc1ccc(OC(=O)NC2CCCCC2)c(OC)c1 | inconclusive [activator, partial curve] |
| CCCCn1c(N)c(C(=O)NCc2cccs2)c2nc3ccccc3nc21 | inactive |
| COc1cccc(N=Nc2c(O)[nH]c(=S)[nH]c2=O)c1 | inactive |
| Cc1ccc(C(=O)n2c(N)nc3ccccc32)cc1 | inconclusive [activator, full curve] |
| N#Cc1c(/N=C/c2ccc(O)cc2O)sc2c1C1CCN2CC1 | inactive |
| CC(=O)Nc1ccccc1C(=O)OCC(=O)c1ccccc1Cl | inconclusive [activator, partial curve] |

| Compound | Potency |
| --- | --- |
| O=C(Oc1ccc2cc(Br)ccc2c1)N1CCCCCC1 | inconclusive [activator, single point] |
| O=C(c1ccc(CNS(=O)(=O)c2ccccc2)cc1)N1CCC2(CC1)OCCO2 | inconclusive [activator, partial curve] |
| O=C(Nc1ccc(Cl)cc1)Nc1ccc(Cl)c(Cl)c1 | inconclusive [activator, single point] |
| COc1ccc2nc(NC3=NCCN3)sc2c1 | active: 2.82 µM |
| CN1CC[C@@]2(C)c3cc(OC(=O)Nc4ccccc4)ccc3N(C)[C@@H]12 | inconclusive [activator, partial curve] |
| CC(=O)c1ccc(OC(=O)N(C)c2ccccc2)cc1 | inconclusive [activator, partial curve] |
| COc1ccc(-n2nc(C(=O)NCC(=O)N3CCC4(CC3)OCCO4)c3ccccc3c2=O)cc1Cl | inconclusive [activator, partial curve] |
| Cn1nc(OC(=O)Nc2ccccc2)cc1C(F)(F)F | inconclusive [activator, single point] |
| CN(C)c1ccc(/C=C2/C(=N\O)C3CCN2CC3)cc1 | inconclusive [activator, partial curve] |
| Cc1ccc2nc3c(cc2c1)CC1(C(=O)N(C)C(=O)N(C)C1=O)C1CCCCN31 (centres undefined) | inconclusive [activator, partial curve] |
| Cc1ccc(C(C)(C)NC(=O)C2CCC(=O)N(C3CCCCCC3)C2)cc1 (centres undefined) | inconclusive [activator, partial curve] |
| COc1ccccc1N(CC(=O)NC1CCCC1)C(=O)c1cnn(C(C)C)c1 | inconclusive [activator, partial curve] |
| CCCCn1c(=O)c(C(=O)Nc2ccccc2Cl)c(O)c2ccccc21 | inconclusive [activator, single point] |
| CN1C(=O)C(=Cc2ccc(N3CCCCCC3)o2)C(=O)N(C)C1=S | inconclusive [activator, single point] |
| COc1ccccc1OCCCn1cc(C=O)c2ccccc21 | inconclusive [activator, partial curve] |
| COc1ccc(NC2CC(=O)N(C(C)C)C2=O)cc1 (centres undefined) | inconclusive [activator, single point] |
| CCCCSc1nc2c(cnn2-c2ccccc2)c(=O)n1N | active: 2.82 µM |
| CCOC(=O)C(=CNc1ccc(C(O)(C(=O)OCC)C(F)(F)F)cc1C)C(=O)OCC (centres undefined) | inactive |
| N#C/C(=C(/O)c1ccc(S(=O)(=O)N(CCCl)CCCl)cc1)c1nc2ccccc2[nH]1 | inconclusive [activator, partial curve] |
| CCCCCCn1c(O)c(C=NC2CCN(Cc3ccccc3)CC2)c(=O)[nH]c1=O | inactive |
| O=C(N/N=C/c1c(O)n(C2CC2)c(=S)[nH]c1=O)c1ccccc1O | inconclusive [activator, partial curve] |
| O=c1[nH]c(=S)[nH]c(O)c1N=Nc1ccc2c(c1)OCO2 | inconclusive [activator, partial curve] |
| Cc1ccc(-c2nn(Cc3ccccc3)cc2C=O)cc1 | inconclusive [activator, partial curve] |
| Nc1ccc2c(c1)Cc1ccccc1-2 | inconclusive [activator, partial curve] |
